Each structure is given as a SMILES string. Screen size: about 150,000 compounds; about 540 (0.36%) showed an effect of 50% or more. Some of the results follow.

This test concerns Plasmodium falciparum. Nature of the test: Primary screen in NF54 nanoGlo assay, in single point, at 2uM, 72h; a lower Z score goes with more inhibition. It is filed as functional, Erythrocyte. The settings on record: timepoint 72 hour.
For `C[C@H]1Cc2ccccc2N1Cc1ccncc1Cl`, the “% Inhibition” value is on record as -1% and the Z score turned out to be 0.21.
Taken in the same sequence, the figures for `COCC1(NC(=O)c2cc(C)n([C@@H](C)C3CC3)n2)CCOCC1` were 0% and 0.04.
`CCc1csc(CNc2ccc3cc[nH]c3n2)n1`: the “% Inhibition” value was 4% and the Z score is listed as -0.43.
Regarding `Cc1csc([C@H](C)N(C)C(=O)c2cnn(-c3ccccc3)c2)n1`, the “% Inhibition” value is -4% and the Z score is recorded as 0.81.
The corresponding values for `Cn1cc(C(NC(=O)CCn2nnc3ccccc32)[C@H]2C[C@@H](O)C2)cn1` (some centres undefined) are -13% and 2.55.
Taken in the same sequence, the figures for `COCc1cccc(CC(=O)N2CCC[C@@](O)(c3c[nH]nn3)C2)c1` were 4% and -0.52.
Consider `CCCC(=O)OC1CC(n2cc(C)c(=O)[nH]c2=O)OC1CO` (centres undefined), for which the “% Inhibition” value was found to be 8% and the Z score is given as -1.2.
Take `CCn1cnnc1C1CCN(CC(=O)Nc2cc(C3CCCC3)nn2-c2ccccc2)CC1`: the “% Inhibition” value is -11% and the Z score was determined as 1.15.
The corresponding values for `Cc1c(CN(C)C(=O)CN2C(=O)NC(=O)C2(C)C)cnn1C` are -15% and 1.54.
Regarding `CS(=O)(=O)c1ccnc(NC(=O)N(Cc2ccoc2)C2CC2)c1`, the “% Inhibition” value is -2% and the Z score turned out to be 0.47.
Consider `CC(=O)NCC(=O)N(Cc1ccco1)C1(C(=O)NC2CCCCC2)CCCCC1`, for which the “% Inhibition” value is listed as 37% and the Z score was -4.75.
On to `c1ccc(Cc2nc(Cn3nnc(-c4ccccc4)n3)no2)cc1`, for which the “% Inhibition” value is -3% and the Z score came out at 0.52.
`Cc1csc(C(=O)NCc2nc(C)no2)c1`: the “% Inhibition” value is reported as -13% and the Z score amounted to 1.91.
In the case of `CN1C(=O)C[C@H](NC(=O)c2c(Cl)cccc2OCC2CC2)C1=O`, the “% Inhibition” value is 2% and the Z score is on record as -0.31.
Regarding `CCS(=O)(=O)Nc1cc(C2CCCC2)nn1C`, the “% Inhibition” value is given as -14% and the Z score stood at 1.38.
Consider `CCn1cc(C(=O)N2CC[C@H](N(CCN3CCCCC3)C(=O)N(C)C)C2)c(C)n1`, for which the “% Inhibition” value is on record as 0% and the Z score worked out at 0.03.
Consider `CCCc1ccc(CN2CCC3(CCC(=O)N(CCc4c[nH]cn4)C3)CC2)o1`, for which the “% Inhibition” value is on record as 0% and the Z score amounted to 0.02.
For `Cc1ccc(OCc2cccc(C(=O)N3CCN4CCC[C@H]4C3)c2)cn1`, the “% Inhibition” value was -13% and the Z score was found to be 1.62.
Consider `COc1ccc(C2Nc3cccc4cccc(c34)N2)cc1OCc1ccccc1`, for which the “% Inhibition” value is recorded as -5% and the Z score was found to be 0.81.
Take `CCCC[C@H](C)N1CCC(Oc2c(F)cccc2F)(C(=O)O)CC1`: the “% Inhibition” value is -11% and the Z score came out at 1.56.
Take `CCn1ccnc1CN1CC[C@@]2(CCCN(C(=O)c3ccccc3C)C2)C1`: the “% Inhibition” value is given as 1% and the Z score is recorded as -0.14.
`O=C(NCC1(N2CCOCC2)CCCCC1)N1CCC1`: the “% Inhibition” value was -6% and the Z score is listed as 0.63.
Consider `CC(C)[C@H](NC(=O)c1ccc(Cl)cc1-n1cnnn1)c1nc2ccccc2n1C(C)C`, for which the “% Inhibition” value was 7% and the Z score is on record as -0.83.
Taken in the same sequence, the figures for `COc1ccccc1Nc1nc2sc(C(=O)Nc3ncccc3C)cc2s1` were -5% and 0.9.
Take `Cc1[nH]c2ccc(-c3noc([C@@H]4CN(C)CCO4)n3)cc2c1C`: the “% Inhibition” value is 0% and the Z score was found to be 0.07.
With `COc1ccc(N2CCn3c(nc4ccccc43)C2)cc1NC(=O)C1CCCCC1`, the “% Inhibition” value is given as 26% and the Z score is -3.48.
Taken in the same sequence, the figures for `CCC(=O)Nc1ccc(C)c(NC(=O)N2CCC[C@@H]2CN(C)c2ccccc2)c1` were -3% and 0.27.
The corresponding values for `O=C(c1ccncc1Cl)N1CCC2(CC1)Cc1cn(nn1)CCCOc1ccc(cc1)CCNC2=O` are 12% and -1.6.
Consider `CC(C)CCOc1ccc(CCNC(=O)c2cncnc2)cc1`, for which the “% Inhibition” value is given as -20% and the Z score is given as 2.18.
For the compound `O=C(Nc1c(-c2cccc(F)c2)n[nH]c1C1CC1)c1ccccc1F`, the “% Inhibition” value came to 19% and the Z score is given as -2.31.
Taken in the same sequence, the figures for `CCC(=O)N(C)c1nc2ccccc2n(CC(=O)Nc2ccccc2Br)c1=O` were -6% and 0.92.
In the case of `O=S(=O)(C1CCCCC1)N1CCC(COc2cc(C3CC3)ncn2)CC1`, the “% Inhibition” value was -22% and the Z score is given as 2.54.
As to `COCc1nc([C@H]2CCN(S(=O)(=O)Cc3ccccc3F)C2)no1`, the “% Inhibition” value was -6% and the Z score is recorded as 1.21.
The corresponding values for `Cc1cccc(CN2CCCn3nc(C(=O)NCCCN4CCCCC4)cc3C2=O)c1` are -6% and 1.11.
Consider `O=C1CCC(=O)N1Cc1ccccc1NC1CC(c2ccccc2)C1` (centres undefined), for which the “% Inhibition” value is reported as -6% and the Z score amounted to 0.53.
Take `Cc1ncsc1C(=O)N1CC(c2ccccc2)C(c2ncon2)C1` (centres undefined): the “% Inhibition” value is on record as -4% and the Z score is 0.8.
Regarding `Cc1nnc([C@H](C)N2CCC3(CC2)OCCc2ccsc23)o1`, the “% Inhibition” value was 0% and the Z score came to 0.02.
On to `Cc1cccc(NC(=O)N2CCCC[C@@H]2CO)c1`, for which the “% Inhibition” value was 0% and the Z score is -0.01.
For `CN1CCCC[C@@H](c2nc(-c3cn[nH]c3)no2)C1=O`, the “% Inhibition” value is on record as -3% and the Z score is reported as 0.37.
In the case of `CN(C)Cc1csc(CNC(=O)Nc2ccn(C)c(=O)c2)n1`, the “% Inhibition” value is given as -4% and the Z score turned out to be 0.51.
On to `O=C([C@H]1CCS(=O)(=O)C1)N1CCC(Cc2ccccc2)CC1`, for which the “% Inhibition” value is on record as -14% and the Z score amounted to 1.87.
In the case of `CC(=O)c1c(F)cc(F)cc1OCc1nccn1CC(F)(F)F`, the “% Inhibition” value is 22% and the Z score is reported as -2.5.

Usually % Inhibition stands for the change of the read-out against control, counted positive when it falls.

Source of the values: ChEMBL document CHEMBL4888484, “Replenishing the malaria drug discovery pipeline: Screening and hit evaluation of the MMV Hit Generation Library 1 (HGL1) against asexual blood stage Plasmodium falciparum ,using a nano luciferase reporter read-out” (2022).
